Results reported in paper PMC4658161.
Changes are numbered by the printed parent chain. Numbers in names are those of the source. These are yes or no findings as the source states them, for the method shown. For some assays here: Binding seen in cells or lysates may run through a third protein. Some binding calls cover weakened binding; strength is not graded here. For some assays here: Sequences can lack the tags named with a protein. Blank lines part the entries; values can stand above or below the binder they belong to.

By UniProt entry, the sequences of proteins in these tests, tags left out. Residues count along the entry.
UniProt P08648, residues 42-1049: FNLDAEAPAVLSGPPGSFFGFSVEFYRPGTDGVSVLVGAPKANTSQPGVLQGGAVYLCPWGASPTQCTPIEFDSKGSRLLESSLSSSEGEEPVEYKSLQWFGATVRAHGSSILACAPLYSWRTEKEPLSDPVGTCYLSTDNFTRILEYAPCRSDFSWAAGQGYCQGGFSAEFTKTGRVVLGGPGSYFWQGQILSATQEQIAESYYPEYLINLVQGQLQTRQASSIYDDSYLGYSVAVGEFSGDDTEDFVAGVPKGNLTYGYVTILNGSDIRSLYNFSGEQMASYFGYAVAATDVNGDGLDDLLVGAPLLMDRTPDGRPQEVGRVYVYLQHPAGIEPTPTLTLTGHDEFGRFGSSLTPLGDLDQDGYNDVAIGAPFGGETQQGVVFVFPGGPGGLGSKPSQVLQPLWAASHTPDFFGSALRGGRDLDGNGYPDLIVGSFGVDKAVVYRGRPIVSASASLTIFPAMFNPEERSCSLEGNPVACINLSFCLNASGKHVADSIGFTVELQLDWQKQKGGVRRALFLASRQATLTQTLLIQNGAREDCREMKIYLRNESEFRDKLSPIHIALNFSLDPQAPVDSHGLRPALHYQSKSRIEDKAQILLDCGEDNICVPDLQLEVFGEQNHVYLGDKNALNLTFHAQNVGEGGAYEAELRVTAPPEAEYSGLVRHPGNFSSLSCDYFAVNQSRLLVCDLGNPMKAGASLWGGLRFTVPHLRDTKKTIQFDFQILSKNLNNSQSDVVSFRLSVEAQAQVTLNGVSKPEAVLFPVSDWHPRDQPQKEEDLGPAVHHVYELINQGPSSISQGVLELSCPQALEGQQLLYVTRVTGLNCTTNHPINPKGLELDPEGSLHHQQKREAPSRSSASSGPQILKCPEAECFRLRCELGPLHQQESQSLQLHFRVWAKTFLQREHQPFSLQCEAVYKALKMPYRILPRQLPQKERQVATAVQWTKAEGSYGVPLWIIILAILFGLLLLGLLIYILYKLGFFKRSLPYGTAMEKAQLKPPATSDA
UniProt Q96EP0: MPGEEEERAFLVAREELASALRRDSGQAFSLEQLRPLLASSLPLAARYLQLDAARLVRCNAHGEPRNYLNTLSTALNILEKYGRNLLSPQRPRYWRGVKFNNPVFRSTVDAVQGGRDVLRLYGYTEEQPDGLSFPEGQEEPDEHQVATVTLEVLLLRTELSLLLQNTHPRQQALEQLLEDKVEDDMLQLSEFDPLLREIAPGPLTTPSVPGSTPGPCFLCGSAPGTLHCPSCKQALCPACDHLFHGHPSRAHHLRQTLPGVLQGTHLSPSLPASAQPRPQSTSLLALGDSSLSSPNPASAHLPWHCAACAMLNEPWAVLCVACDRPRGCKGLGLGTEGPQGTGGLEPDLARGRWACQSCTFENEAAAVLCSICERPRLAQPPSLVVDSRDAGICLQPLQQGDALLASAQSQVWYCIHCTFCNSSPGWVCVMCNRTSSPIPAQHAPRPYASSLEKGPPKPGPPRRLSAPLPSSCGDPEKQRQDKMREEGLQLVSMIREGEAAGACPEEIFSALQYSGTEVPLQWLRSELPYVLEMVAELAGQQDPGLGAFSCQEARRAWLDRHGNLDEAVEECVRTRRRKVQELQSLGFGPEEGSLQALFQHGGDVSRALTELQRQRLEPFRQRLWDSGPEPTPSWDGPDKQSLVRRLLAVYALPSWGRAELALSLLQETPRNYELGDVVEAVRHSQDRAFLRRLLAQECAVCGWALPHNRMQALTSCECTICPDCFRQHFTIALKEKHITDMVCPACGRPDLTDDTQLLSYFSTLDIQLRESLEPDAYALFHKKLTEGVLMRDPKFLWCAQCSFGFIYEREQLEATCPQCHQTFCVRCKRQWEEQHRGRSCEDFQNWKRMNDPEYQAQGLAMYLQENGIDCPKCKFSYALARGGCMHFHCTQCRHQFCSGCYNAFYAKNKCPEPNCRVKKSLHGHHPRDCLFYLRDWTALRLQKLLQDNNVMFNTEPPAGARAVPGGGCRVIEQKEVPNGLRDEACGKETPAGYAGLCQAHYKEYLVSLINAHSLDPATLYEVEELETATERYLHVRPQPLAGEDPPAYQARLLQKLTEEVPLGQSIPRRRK

Legend:
[1] = target: ITGA5-mCherry (UniProt P08648); experiment: FRET or BRET; FRET measured by FLIM between GFP-SHARPIN (WT or mutants) and ITGA5-mCherry overexpressed in HEK293 cells
[2] = target: T1, endogenous ITGAL (Jurkat cells) (human (endogenous in Jurkat)) (UniProt P20701); experiment: co-IP; endogenous proteins from Jurkat cells, immunoprecipitated with an ITGAL antibody (GFP antibody as negative control)
T1 sequence: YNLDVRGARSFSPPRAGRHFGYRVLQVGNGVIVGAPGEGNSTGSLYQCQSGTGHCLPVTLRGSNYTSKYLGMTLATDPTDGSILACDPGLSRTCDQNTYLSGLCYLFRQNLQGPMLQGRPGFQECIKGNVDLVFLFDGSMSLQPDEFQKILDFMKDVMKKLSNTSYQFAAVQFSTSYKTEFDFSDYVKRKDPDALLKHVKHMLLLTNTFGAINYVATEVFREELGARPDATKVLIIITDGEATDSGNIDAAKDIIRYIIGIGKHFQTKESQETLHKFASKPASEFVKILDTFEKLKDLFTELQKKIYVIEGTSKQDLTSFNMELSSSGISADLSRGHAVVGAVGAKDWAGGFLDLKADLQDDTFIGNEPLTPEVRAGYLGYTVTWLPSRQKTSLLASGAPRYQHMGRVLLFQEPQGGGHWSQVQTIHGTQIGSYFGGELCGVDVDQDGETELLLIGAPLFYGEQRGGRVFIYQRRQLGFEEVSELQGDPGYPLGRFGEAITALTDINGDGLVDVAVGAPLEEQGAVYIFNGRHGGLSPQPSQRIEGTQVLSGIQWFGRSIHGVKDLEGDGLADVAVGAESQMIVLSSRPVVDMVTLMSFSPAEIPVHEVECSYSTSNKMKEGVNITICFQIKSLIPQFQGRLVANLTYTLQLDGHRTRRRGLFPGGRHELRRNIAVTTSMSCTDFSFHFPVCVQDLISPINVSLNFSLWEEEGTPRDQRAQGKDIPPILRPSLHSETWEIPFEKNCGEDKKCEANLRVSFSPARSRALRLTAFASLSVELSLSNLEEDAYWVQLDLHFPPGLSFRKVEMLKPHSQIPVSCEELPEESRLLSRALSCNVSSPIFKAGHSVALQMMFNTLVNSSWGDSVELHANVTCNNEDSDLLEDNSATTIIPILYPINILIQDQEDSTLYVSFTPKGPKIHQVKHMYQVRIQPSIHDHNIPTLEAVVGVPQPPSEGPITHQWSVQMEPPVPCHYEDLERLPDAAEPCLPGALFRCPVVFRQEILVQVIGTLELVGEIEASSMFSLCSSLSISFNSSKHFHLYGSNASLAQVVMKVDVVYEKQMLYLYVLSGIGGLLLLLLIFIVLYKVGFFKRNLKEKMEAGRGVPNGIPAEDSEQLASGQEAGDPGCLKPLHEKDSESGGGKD

[3] = target: recombinant RNF31 (UniProt Q96EP0); experiment: ELISA; recombinant RNF31 coated on 96-well plates overnight at +4°C; 0.1 mM GST-SHARPIN WT or mutant, 3 h at room temperature in 0.1% Tween20, 5% BSA, 10 μM ZnCl2, 1 mM DTT in TBS; detected with anti-GST; both purified
[4] = target: recombinant RNF31 (UniProt Q96EP0); experiment: far-Western; GST-SHARPIN (WT, fragments or point mutants) with recombinant full-length ITGAL-ITGB2 or recombinant RNF31; which partner was on the membrane is not told; performed as described in ref. 5; both purified
[5] = target: recombinant RNF31 (UniProt Q96EP0); experiment: pull-down; GST-SHARPIN and recombinant RNF31 in vitro, with or without the ITGAL cytoplasmic-domain peptide; both purified
[6] = target: T2, GST-SHARPIN^WT (UniProt Q9H0F6); experiment: as above
T2 sequence: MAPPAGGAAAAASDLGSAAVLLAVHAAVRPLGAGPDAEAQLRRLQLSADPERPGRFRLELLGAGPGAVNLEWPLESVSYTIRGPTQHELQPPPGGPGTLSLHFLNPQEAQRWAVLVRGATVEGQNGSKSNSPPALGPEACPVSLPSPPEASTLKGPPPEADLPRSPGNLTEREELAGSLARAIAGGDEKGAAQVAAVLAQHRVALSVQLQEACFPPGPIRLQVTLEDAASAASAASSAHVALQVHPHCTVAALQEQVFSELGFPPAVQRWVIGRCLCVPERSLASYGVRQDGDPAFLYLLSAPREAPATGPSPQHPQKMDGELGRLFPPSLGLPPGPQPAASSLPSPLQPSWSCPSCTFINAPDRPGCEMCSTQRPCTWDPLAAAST

binding [2]: binds
B2: endogenous SHARPIN (Jurkat cells) (protein, UniProt Q9H0F6 1-387)
chain: T2 sequence

binding [1]: binds
B5: GFP-SHARPIN^V240A/L242A (protein, UniProt Q9H0F6 1-387)
chain: T2 sequence with V240A, L242A

binding [3]: binds
binding [4]: binds
binding [5]: binds
B7: GST-SHARPIN^WT (protein, UniProt Q9H0F6 1-387)
chain: T2 sequence

binding [6]: binds
B9: biotinylated peptide corresponding to the cytoplasmic domain of human ITGAL (peptide, UniProt P20701 1112-1170)
peptide: YKVGFFKRNLKEKMEAGRGVPNGIPAEDSEQLASGQEAGDPGCLKPLHEKDSESGGGKD
modifications: biotinylated (position not given)

Second part, the binder before the results:

B1: GFP-SHARPIN^E260A/L261A (protein, UniProt Q9H0F6 1-387)
chain: T2 sequence with E260A, L261A
binding [1]: binds

B3: GFP-SHARPIN^L261A/F263A (protein, UniProt Q9H0F6 1-387)
chain: T2 sequence with L261A, F263A
binding [1]: binds

B4: GFP-SHARPIN^L276A (protein, UniProt Q9H0F6 1-387)
chain: T2 sequence with L276A
binding [1]: binds

B6: GFP-SHARPIN^WT (protein, UniProt Q9H0F6 1-387)
chain: T2 sequence
binding [1]: binds

B8: GFP-SHARPIN^I272A (protein, UniProt Q9H0F6 1-387)
chain: T2 sequence with I272A
binding [1]: binds
